# Measured values published in PubChem BioAssay AID686978 (National Center for Advancing Translational Sciences (NCATS), 2013).
# The whole screen tested about 420,000 compounds, of which about 64,000 (15%) were called active. Inconclusive means that the source gave no clear call. Such entries were picked first, then a sample of the others. The call rests on the fitted dose curve; in most records, active means well fitted inhibition curve with a large enough effect; inconclusive means small, poorly fitted or top-dose-only effect; inactive means flat fitted curve, though single readings scatter. Potencies of inconclusive entries are left out as doubtful fits.
# Assay: qHTS for Inhibitors of human tyrosyl-DNA phosphodiesterase 1 (TDP1): qHTS in cells in absence of CPT; further: nearly all actives have a fitted effect of over 55% in size
# Conditions: DT40 Tdp1-/- hTDP1 cells, no CPT, ATP luminescence, 48 h; activity change, negative = growth inhibition: at 46.2 µM (top of the series) unless noted
# Procedure, shortened: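 Luminescent ATP content (CellTiter-Glo) served as the growth readout. Knockout chicken DT40 cells expressing human TDP1 were exposed to compounds without camptothecin for a minimum 48 hr at 37 °C.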
# On the % scale 0 is the no-effect control and ±100 the full control effect; potency means the concentration at half of the fitted maximal effect; tags describe the fitted curve by direction and shape.
SMILES,"activity change, negative = growth inhibition",Potency
COc1ccccc1N1CCN(C(=O)c2cccc(Oc3ccccc3)c2)CC1,inactive: -15%,
CCC1(c2ccccc2)NC(=O)N(CC(=O)Nc2cc(Cl)ccc2N2CCN(C)CC2)C1=O (stereo not drawn),,"inconclusive [inhibitor, single point]"
O=C1CCCCc2cc(O)c(O)cc21,,"inconclusive [inhibitor, single point]"
CCOCCn1c(N2CCN(c3ccc(OC)cc3)CC2)nc2c1c(=O)n(C)c(=O)n2C,,"inconclusive [inhibitor, single point]"
O=C(CN1CCOCC1)Nc1nc(-c2ccc3c(c2)CCN3S(=O)(=O)c2ccccc2)cs1,,"inconclusive [inhibitor, single point]"
CCc1cc(CNC(=O)c2ccc3nc(Cc4ccc(OC)c(OC)c4)oc3c2)on1,,"inconclusive [inhibitor, partial curve]"
CC[C@]12c3[nH]c4cc(-c5ccco5)ccc4c3CCN1C(=O)[C@@H](CC(=O)NCc1ccco1)C[C@@H]2C(=O)N1CCN(C(=O)c2ccco2)CC1,,"inconclusive [inhibitor, single point]"
COc1cc(NC(=O)COC(=O)CSc2cc(C)ccc2C)c(C)cc1[N+](=O)[O-],inactive: 15.5%,
O=C(c1cc(COc2ccc(F)cc2Cl)on1)N1CCN(C2CCCC2)CC1,,"inconclusive [inhibitor, single point]"
NC(CSC(c1ccccc1)(c1ccccc1)c1ccccc1)C(=O)O (stereo not drawn),,active: 5.17 µM
O=C(NCCc1ccccc1)c1ccc(-c2ccc(F)c(F)c2)c2ccoc12,,active: 4.11 µM
O=c1c2ccccc2c(C=Nc2ccccc2O)c(O)n1-c1nccs1,,"inconclusive [inhibitor, partial curve]"
COc1ccc(C(=O)NC(c2ccccc2Cl)c2cc(Cl)c3cccnc3c2O)cc1 (stereo not drawn),,active: 13 µM
COc1ccc(Nc2nc3cc(C)ccc3cc2C#N)cc1,inactive: -24.2%,
Cc1csc(=O)n1CCC(=O)OCC(=O)c1c(N)n(CC(C)C)c(=O)n(C)c1=O,,active: 14.6 µM
Cc1c(C)n(Cc2ccccc2)c2ccc(C(=O)N3CCN(c4ccccc4)CC3)cc12,,"inconclusive [inhibitor, single point]"
O=C(O)/C=C/C(=O)Nc1ccc(Oc2ccccc2)cc1,inactive: -11.7%,
CCN(CC)S(=O)(=O)c1ccc2c(c1)N(CC(=O)Nc1c(C)cccc1C)C(=O)C1CCCN21 (stereo not drawn),inactive: -19.9%,
CC(=O)Nc1nc(Cn2nnc(-c3ccc4c(c3)OCO4)n2)nc(N(C)C)n1,,"inconclusive [inhibitor, single point]"
CCN(CC(=O)NCc1cccs1)C(=O)c1cccc(S(=O)(=O)N(CC)c2ccccc2)c1,,active: 23.1 µM
COc1ccc(NC(=O)c2ccc3nc(C)c(N(C)C(=O)CCc4ccccc4)n3c2)cc1OC,,"inconclusive [inhibitor, single point]"
CC(C)Oc1ccc(C(=O)N(Cc2ccc(N(C)C)cc2)Cc2ccco2)cc1,,active: 13 µM
CCCN1C(=O)c2[nH]nc(-c3cc(Cl)c(C)cc3O)c2C1c1ccc(O)c(OC)c1 (stereo not drawn),,"inconclusive [inhibitor, single point]"
Cc1ccc(OCC(=O)NCC(=O)OCc2cc(=O)n3nc(C(C)C)sc3n2)cc1,inactive: 0.156%,
COc1ccc(C)cc1S(=O)(=O)NC(C)C(=O)Nc1ccc2c(c1)OCO2 (stereo not drawn),inactive: 7.87%,

SMILES,"activity change, negative = growth inhibition",Potency
Cc1ccc(C(=O)OCC(=O)Nc2ccc3c(c2)OCO3)cc1S(=O)(=O)N1CCOCC1,inactive: -8.85%,
CCS(=O)(=O)N1CCCC(C(=O)NCc2ccccc2Cl)C1 (stereo not drawn),inactive: -21.7%,
O=C(Nc1nc2ccc(F)cc2s1)c1ccccn1,,active: 0.517 µM
O=C(c1cc2sccc2n1Cc1ccc(F)cc1)N1CCCc2ccccc21,,active: 23.1 µM
Cc1ccc(C(=O)NCCNC(=O)COc2ccccc2Cl)cn1,inactive: -17.4%,
O=C(Nc1ccnn1C1CCN(C2CCCCC2)CC1)c1ccccc1,inactive: 1.7%,
COc1ccc(N2CC(C(=O)N[C@H](C(=O)NC(C)c3ccccc3)C(C)C)CC2=O)cc1 (stereo partly drawn),inactive: 4.25%,
COc1cc2nc(C)sc2cc1SC,,"inconclusive [inhibitor, single point]"
Cc1ccc(NC(=O)C2(C)CCN2Cc2ccc(OC(C)C)cc2)cc1 (stereo not drawn),,"inconclusive [inhibitor, single point]"
Cc1ccc(NC(=O)CSc2nnnn2C)cc1S(=O)(=O)N(C)C,inactive: -3.62%,
O=c1c(-c2cccs2)nc2cnc(N3CCOCC3)nc2n1Cc1cccs1,inactive: -8.31%,
COC(=O)[C@]1(C)N[C@H](c2ccc(-c3ccc(Cl)c(Cl)c3)c(OC)c2)[C@@H]2C(=O)N(C)C(=O)[C@@H]21,,active: 7.31 µM
CC1CCN(C(=O)c2ccc3c(c2)C(=O)c2ccccc2-3)CC1,,"inconclusive [inhibitor, single point]"
NC1=NN=C(N2N=C(c3ccco3)CC2(O)C(F)(F)F)n2ncnc2C1 (stereo not drawn),,"inconclusive [inhibitor, single point]"
Clc1ccc(CSc2nnc(CNc3cccc(Cl)c3)o2)cc1,,"inconclusive [inhibitor, single point]"
COc1ccc(-c2cc(C(=O)NC(Cc3c[nH]c4ccccc34)C(=O)O)c(C)o2)cc1OC (stereo not drawn),,active: 29.1 µM
O=C(CSc1nc2ccsc2c(=O)n1Cc1ccc(C(=O)O)cc1)NCc1ccco1,inactive: 3.55%,
CN(CC(=O)Nc1cccc(F)c1)C(=O)c1ccc(COc2ccccc2)o1,,"inconclusive [inhibitor, single point]"
CC(C)[C@H](NC(=O)c1ccc(C(C)(C)C)cc1)C(=O)Nc1nnc(C2CC2)s1,,"inconclusive [inhibitor, single point]"
O=C(CCS(=O)(=O)c1ccc(Br)s1)Nc1cc(C(F)(F)F)cc(C(F)(F)F)c1,,active: 20.6 µM
O=C(CCc1ccccc1Cl)Nc1cc(S(=O)(=O)N2CCOCC2)ccc1N1CCCC1,,active: 18.4 µM
Cn1cccc1C1NC(=O)c2c(sc3c2CCC(C(C)(C)C)C3)N1 (stereo not drawn),,active: 18.4 µM
CC(=O)NC(c1cccc(F)c1)c1nc(-c2ccc3ccccc3c2)cs1 (stereo not drawn),,"inconclusive [inhibitor, single point]"
Cc1cccc(NC(=S)NC(C)CCc2ccccc2)c1 (stereo not drawn),,"inconclusive [inhibitor, single point]"
COCCn1c(=O)c(CCc2ccccc2)nc2cnc(OC)nc21,,"inconclusive [inhibitor, single point]"

SMILES,"activity change, negative = growth inhibition",Potency
COc1cccc(-c2nc(-c3ccccn3)no2)c1,,"inconclusive [inhibitor, partial curve]"
C[C@H](O)[C@@H]1CN2CCc3c([nH]c4ccccc34)[C@@H]2C[C@@H]1N(C)C(=O)c1ccco1,,"inconclusive [inhibitor, single point]"
O=c1c2ccccc2sc2nc(CCl)nn12,,"inconclusive [inhibitor, single point]"
Cc1ccc(C)c(S(=O)(=O)Nc2ccc(O)c(Sc3ncn[nH]3)c2)c1,inactive: 12.7%,
CC(=O)N1CCN(c2ccc(Nc3nc(C)nc4c3oc3ccccc34)cc2)CC1,,"inconclusive [inhibitor, single point]"
CCN(CC(=O)NCc1cccs1)C(=O)c1cccc(S(=O)(=O)N2CCc3ccccc32)c1,,"inconclusive [inhibitor, single point]"
COc1ccc(-c2nc(CSCC(=O)N3CCN(c4ccccc4F)CC3)c(C)o2)cc1,,active: 8.2 µM
COc1ccccc1NS(=O)(=O)c1cc(NC(=O)c2sc3cc(Cl)ccc3c2Cl)ccc1C,,"inconclusive [inhibitor, single point]"
CCCCCCCC[n+]1cccc(C(=O)N(CC)CC)c1,,"inconclusive [inhibitor, partial curve]"
CC(Sc1nnnn1C1CCCCC1)C(=O)O (stereo not drawn),,"inconclusive [inhibitor, single point]"
COc1ccccc1C=C1SC(=S)NC1=O,,"inconclusive [inhibitor, single point]"
Cc1cccc(C)c1Nc1c(-c2ccccn2)nc2ccc(Cl)cn12,,"inconclusive [inhibitor, single point]"
COc1ccc(CNc2nc(NCc3ccc(OC)c(OC)c3)n(C(=O)c3cccs3)n2)cc1OC,,active: 14.6 µM
Cc1cccc(OC(=O)c2snnc2C)c1,inactive: 6.86%,
CSc1ccccc1NC(=S)Nc1cccc(C(F)(F)F)c1,inactive: -28.4%,
NC(=O)C1CCN(Cc2ccc(OCc3ccccc3)cc2)CC1,inactive: -11%,
COc1ccc(S(=O)(=O)NCCSC(C)(C)C)c(Cl)c1Cl,,"inconclusive [inhibitor, single point]"
COc1cccc(C(=O)Nc2nnc(C3CCCO3)s2)c1 (stereo not drawn),,"inconclusive [inhibitor, partial curve]"
Cc1cc(S(=O)(=O)Nc2c(C)nn(C)c2C)c(Cl)cc1Cl,,"inconclusive [inhibitor, single point]"
Cn1cc(S(=O)(=O)N2CCCCCC2)cc1C(=O)NCc1ccc(F)cc1,,"inconclusive [inhibitor, single point]"
O=C(NCc1ccccc1)NC1COc2ccccc2C1 (stereo not drawn),inactive: -5.35%,
COc1ccc(OC)c(C2C(C(=O)c3ccc(C)o3)=C(O)C(=O)N2CCN2CCOCC2)c1 (stereo not drawn),inactive: 16.6%,
CCCCN(CC)c1nc(N)c2c(N)nc(OCC)cc2c1C#N,,"inconclusive [inhibitor, single point]"
